Test results published in PubChem BioAssay AID1458 (National Center for Advancing Translational Sciences (NCATS), 2008).
Among all 210,000 compounds or so, about 5,900 (2.8%) were called active. The inconclusive results got no clear call from the source; some entries with a clear call stand among them for comparison. Calls follow the shape of the dose curve; as a rule, active = well fitted activation curve with a large enough effect; inconclusive = small, poorly fitted or top-dose-only effect; inactive = no such curve, though single readings can be large or run the other way. A potency beside an inconclusive call is a rough fit, not a confirmed value.

assay: qHTS Assay for Enhancers of SMN2 Splice Variant Expression; details: HEK293 SMN2-luciferase splicing reporter, luminescence, 30-36 h; series mostly up to 46.1 µM; also: nearly all actives have a fitted effect of over 55% in size
Procedure, shortened: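 HEK293 cells carry an SMN2 […]–luciferase reporter in which exon 7 inclusion puts luciferase in frame. Cells were plated 10-12 h before compound addition, then incubated 30-36 h at 37C. ONE-Glo luminescence was read; sodium butyrate at 4.5 mM final served as control.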
Potency is read from the fitted curve at half-maximal effect; tags tell the direction and shape of the fitted curve.

SMILES | Potency
CC(C)CC(=O)Nc1ccc2ccccc2c1 | inconclusive: 17.8 µM [activator, partial curve]
O=C(CSc1ccccn1)Nc1ccc2c(c1)oc1ccccc12 | active: 17.8 µM
CCC(=O)N(Cc1cc2c(C)cc(C)cc2[nH]c1=O)C1CCCCC1 | inconclusive: 0.0355 µM [activator, full curve, poor fit]
CC(C)Cc1nnc(NC(=O)Nc2ccccc2)s1 | active: 11.2 µM
COc1ccc(-c2coc3c(O)c(OC)ccc3c2=O)cc1 | active: 1.58 µM
COc1ccc(/C=C/C(=O)Oc2cccc(/C=N/NC(=O)COc3c(C)cccc3C)c2)cc1 | inconclusive: 22.4 µM [activator, single point]
COc1cc(-c2nc3cnccn3c2Nc2ccc3c(c2)OCCO3)ccc1O | inconclusive: 22.4 µM [activator, single point]
COC(=O)c1nc(N)sc1-c1ccc(Cl)cc1 | inconclusive: 11.2 µM [activator, partial curve, poor fit]
CSc1nnc(NC(=O)c2ccc(C)c(S(=O)(=O)N3CCOCC3)c2)s1 | active: 11.2 µM
Cc1ccc(C(=O)Nc2cccc(C(=O)N3CCOCC3)c2)cc1 | inconclusive: 14.1 µM [activator, single point]
COc1ccccc1-c1nnc(NC(=O)c2ccc3c(c2)OCO3)s1 | inconclusive: 4.47 µM [activator, partial curve, poor fit]
Cn1c(=O)n(C)c2cc(C(=O)c3ccccc3)ccc21 | inconclusive: 10 µM [activator, partial curve]
Cc1ccc2oc(C(=O)Nc3c(C(=O)c4ccc(C)c(F)c4)oc4ccccc34)cc(=O)c2c1 | inactive
O=C(Nc1cccc(O)c1)c1cnn2cccnc12 | inconclusive: 15.8 µM [activator, single point]
O=C(CSc1nc2ccccc2s1)Nc1nccs1 | inconclusive: 3.16 µM [activator, partial curve]
CCOC(=O)c1cc(-c2ccccc2)nn1Cc1ccccc1 | inconclusive: 2.82 µM [activator, partial curve, poor fit]
CCN(CC)C(=O)C(Sc1ccccc1)c1ccccc1 (centres undefined) | inconclusive: 0.794 µM [activator, partial curve]
CC1(C)CC(=O)C(C=NCCN2CCN(C(=O)C34CC5CC(CC(C5)C3)C4)CC2)=C(O)C1 | inconclusive: 0.0631 µM [activator, full curve, poor fit]
COC(=O)N/N=C/c1ccc(-c2cccc(Cl)c2)o1 | inactive
COc1cccc(NC(=O)c2sc3nc(C)c(C(=O)Nc4ccc(C)cc4C)c(-c4ccc(Br)cc4)c3c2N)c1 | active: 12.6 µM
O=C(NC(=S)Nc1ccccc1N1CCOCC1)c1cccs1 | inactive
CNC(=S)N1CCc2cc(OC)c(OC)cc2C1COc1ccc(OC)cc1 (centres undefined) | inconclusive: 35.5 µM [activator, single point]

SMILES | Potency
COc1ccc(NC(=O)Cn2c(=O)n(-c3ccccc3)c(=O)c3ccc(C(=O)NCc4ccc5c(c4)OCO5)cc32)cc1 | inconclusive: 0.0447 µM [activator, full curve, poor fit]
Cc1ccc(NC(=O)c2noc3c2CCc2ccccc2-3)cc1 | inconclusive: 15.8 µM [activator, single point]
CCC(=O)N(CC)Cc1cc(=O)[nH]c2ccccc12 | inconclusive: 35.5 µM [activator, single point]
O=C(O)c1cc(N/N=C/c2ccc(N3CCOCC3)s2)ccc1Cl | inconclusive: 35.5 µM [activator, single point]
Oc1cccc(Nc2nc(-c3ccccc3)nc3ccccc23)c1 | inconclusive: 5.62 µM [activator, single point]
CCCCOc1ccc(-c2nc(-c3cccnc3)no2)cc1 | active: 12.6 µM
CC(C)(C)c1nn2cnnc2n(/N=C/c2ccccc2)c1=O | inconclusive: 0.251 µM [activator, full curve, poor fit]
c1ccc(CSc2ccc(-c3cccs3)nn2)nc1 | active: 15.8 µM
Cn1ccnc1SCC(=O)Nc1nc2ccccc2s1 | inconclusive: 22.4 µM [activator, single point]
CCOC(=O)c1c(-c2ccccc2Cl)csc1NC(=O)c1cc(S(=O)(=O)N2CCOCC2)ccc1C | inactive
O=S(=O)(NC1CCCc2ccccc21)c1cnc[nH]1 (centres undefined) | inconclusive: 1 µM [activator, partial curve]
COc1ccc(C(c2c(O)nc(SC)n(C)c2=O)c2c(O)nc(SC)n(C)c2=O)cc1O | inconclusive: 12.6 µM [activator, partial curve, poor fit]
CCC(C)(C)NC(=O)C(OC(=O)c1ccco1)c1ccccc1OC (centres undefined) | inconclusive: 35.5 µM [activator, partial curve, poor fit]
O=C(/C=C/c1ccccc1)OC1CC(O)C2(O)C=CO[C@@H](OC3OC(CO)C(O)C(O)C3O)C12 (some centres undefined) | inactive
C[C@H]1C[C@@H]2[C@@H]([C@@H](O)C[C@@]3(C)[C@H]2CC[C@]3(O)C(=O)CO)[C@@]2(C)C=CC(=O)C=C12 | inactive
CC(C)CCN1CC(O)=C(c2nc(-c3ccc(Cl)cc3)cs2)C1=N | inconclusive: 14.1 µM [activator, partial curve, poor fit]
Cc1nc(-c2cnn(-c3ccccc3)c2)c2cc(C)oc2n1 | inconclusive: 2.24 µM [activator, partial curve, poor fit]
CCS(=O)(=O)NCCc1ccc(OC)c(OC)c1 | inconclusive: 39.8 µM [activator, partial curve, poor fit]
Cc1nn(-c2ccccc2)c(Cl)c1/C=N/NC(=O)OC(C)(C)C | active: 17.8 µM
O=C(Nc1nc2ccccc2s1)c1cc(-c2ccccc2)nn1-c1ccccc1 | inactive
CCOc1ccccc1C(=O)Nc1cc2c(cc1N1CCOCC1)n(C)c(=O)n2C | inactive
Cc1occc1C(=O)Nc1ccc2c(c1)OCCO2 | inconclusive: 12.6 µM [activator, partial curve, poor fit]
